This is one part of the list.
Legend:
Test in all cases: glycan array binding signal (z-score within array); higher = stronger binding
Details in all cases: glycan notation: IUPAC condensed, linker removed
Glc(a1-2)Glc = target: Glc(a1-2)Glc
Outline: (§1)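 From the Consortium for Functional Glycomics database, 3228 arrays were curated, keeping only those whose protein sequence was available. Binding is given as a within-array Z-score averaged across arrays sharing a protein sequence and across linkers. Negative Z-scores can be read as non-binding.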

Glc(a1-2)Glc(a1-2)Glc = target: Glc(a1-2)Glc(a1-2)Glc
Outline: as §1

[1] = target: Glc(a1-2)Glc(a1-2)Glc(a1-2)Glc
Outline: as §1

[2] = target: Glc(a1-2)Glc(a1-2)Glc(a1-2)Glc(a1-2)Glc
Outline: as §1

[3] = target: Glc(a1-2)Glc(a1-2)Glc(a1-2)Glc(a1-2)Glc(a1-2)Glc
Outline: as §1

[4] = target: Glc(a1-2)Glc(a1-2)Glc(a1-2)Glc(a1-2)Glc(a1-2)Glc(a1-2)Glc
Outline: as §1

[5] = target: Glc(a1-2)Glc(a1-2)Glc(a1-2)Glc(a1-2)Glc(a1-2)Glc(a1-2)Glc(a1-2)Glc
Outline: as §1

[6] = target: Glc(a1-2)Glc(a1-2)Glc(a1-2)Glc(a1-2)Glc(a1-2)Glc(a1-2)Glc(a1-2)Glc(a1-2)Glc
Outline: as §1

Glc(a1-3)Glc = target: Glc(a1-3)Glc
Outline: as §1

Glc(a1-3)Glc(a1-3)Glc = target: Glc(a1-3)Glc(a1-3)Glc
Outline: as §1

[7] = target: Glc(a1-3)Glc(a1-3)Glc(a1-3)Glc
Outline: as §1

[8] = target: Glc(a1-3)Glc(a1-3)Glc(a1-3)Glc(a1-3)Glc
Outline: as §1

[9] = target: Glc(a1-3)Glc(a1-3)Glc(a1-3)Glc(a1-3)Glc(a1-3)Glc
Outline: as §1

[10] = target: Glc(a1-3)Glc(a1-3)Glc(a1-3)Glc(a1-3)Glc(a1-3)Glc(a1-3)Glc
Outline: as §1

[11] = target: Glc(a1-3)Glc(a1-3)Glc(a1-3)Glc(a1-3)Glc(a1-3)Glc(a1-3)Glc(a1-3)Glc
Outline: as §1

[12] = target: Glc(a1-3)Glc(a1-3)Glc(a1-3)Glc(a1-3)Glc(a1-3)Glc(a1-3)Glc(a1-3)Glc(a1-3)Glc
Outline: as §1

[13] = target: Glc(a1-3)Glc(a1-3)Glc(a1-3)Glc(a1-3)Glc(a1-3)Glc(a1-3)Glc(a1-3)Glc(a1-3)Glc(a1-3)Glc
Outline: as §1

[14] = target: Glc(a1-3)Glc(a1-3)Glc(a1-3)Glc(a1-3)Glc(a1-3)Glc(a1-3)Glc(a1-3)Glc(a1-3)Glc(a1-3)Glc(a1-3)Glc
Outline: as §1

[15] = target: Glc(a1-3)Glc(a1-3)Glc(a1-3)Glc(a1-3)Glc(a1-3)Glc(a1-3)Glc(a1-3)Glc(a1-3)Glc(a1-3)Glc(a1-3)Glc(a1-3)Glc
Outline: as §1

[16] = target: Glc(a1-3)Glc(a1-3)Glc(a1-3)Glc(a1-3)Glc(a1-3)Glc(a1-3)Glc(a1-3)Glc(a1-3)Glc(a1-3)Glc(a1-3)Glc(a1-3)Glc(a1-3)Glc
Outline: as §1

Glc(a1-4)Glc = target: Glc(a1-4)Glc
Outline: as §1

Glc(a1-4)Glc(a1-4)Glc = target: Glc(a1-4)Glc(a1-4)Glc
Outline: as §1

[17] = target: Glc(a1-4)Glc(a1-4)Glc(a1-4)Glc
Outline: as §1

[18] = target: Glc(a1-4)Glc(a1-4)Glc(a1-4)Glc(a1-4)Glc
Outline: as §1

[19] = target: Glc(a1-4)Glc(a1-4)Glc(a1-4)Glc(a1-4)Glc(a1-4)Glc
Outline: as §1

[20] = target: Glc(a1-4)Glc(a1-4)Glc(a1-4)Glc(a1-4)Glc(a1-4)Glc(a1-4)Glc
Outline: as §1

[21] = target: Glc(a1-4)Glc(a1-4)Glc(a1-4)Glc(a1-4)Glc(a1-4)Glc(a1-4)Glc(a1-4)Glc
Outline: as §1

[22] = target: Glc(a1-4)Glc(a1-4)Glc(a1-4)Glc(a1-4)Glc(a1-4)Glc(a1-4)Glc(a1-4)Glc(a1-4)Glc
Outline: as §1

[23] = target: Glc(a1-4)Glc(a1-4)Glc(a1-4)Glc(a1-4)Glc(a1-4)Glc(a1-4)Glc(a1-4)Glc(a1-4)Glc(a1-4)Glc
Outline: as §1

[24] = target: Glc(a1-4)Glc(a1-4)Glc(a1-4)Glc(a1-4)Glc(a1-4)Glc(a1-4)Glc(a1-4)Glc(a1-4)Glc(a1-4)Glc(a1-4)Glc
Outline: as §1

[25] = target: Glc(a1-4)Glc(a1-4)Glc(a1-4)Glc(a1-4)Glc(a1-4)Glc(a1-4)Glc(a1-4)Glc(a1-4)Glc(a1-4)Glc(a1-4)Glc(a1-4)Glc
Outline: as §1

[26] = target: Glc(a1-4)Glc(a1-4)Glc(a1-4)Glc(a1-4)Glc(a1-4)Glc(a1-4)Glc(a1-4)Glc(a1-4)Glc(a1-4)Glc(a1-4)Glc(a1-4)Glc(a1-4)Glc
Outline: as §1

Glc(a1-4)Glc(a1-6)Glc = target: Glc(a1-4)Glc(a1-6)Glc
Outline: as §1

Glc(a1-6)Glc = target: Glc(a1-6)Glc
Outline: as §1

Glc(a1-6)Glc(a1-4)Glc = target: Glc(a1-6)Glc(a1-4)Glc
Outline: as §1

[27] = target: Glc(a1-6)Glc(a1-4)Glc(a1-4)Glc
Outline: as §1

[28] = target: Glc(a1-6)Glc(a1-4)Glc(a1-4)Glc(a1-6)Glc(a1-4)Glc(a1-4)Glc
Outline: as §1

Glc(a1-6)Glc(a1-6)Glc = target: Glc(a1-6)Glc(a1-6)Glc
Outline: as §1

[29] = target: Glc(a1-6)Glc(a1-6)Glc(a1-6)Glc
Outline: as §1

[30] = target: Glc(a1-6)Glc(a1-6)Glc(a1-6)Glc(a1-6)Glc
Outline: as §1

[31] = target: Glc(a1-6)Glc(a1-6)Glc(a1-6)Glc(a1-6)Glc(a1-6)Glc
Outline: as §1

[32] = target: Glc(a1-6)Glc(a1-6)Glc(a1-6)Glc(a1-6)Glc(a1-6)Glc(a1-6)Glc
Outline: as §1

[33] = target: Glc(a1-6)Glc(a1-6)Glc(a1-6)Glc(a1-6)Glc(a1-6)Glc(a1-6)Glc(a1-6)Glc
Outline: as §1

[34] = target: Glc(a1-6)Glc(a1-6)Glc(a1-6)Glc(a1-6)Glc(a1-6)Glc(a1-6)Glc(a1-6)Glc(a1-6)Glc
Outline: as §1

[35] = target: Glc(a1-6)Glc(a1-6)Glc(a1-6)Glc(a1-6)Glc(a1-6)Glc(a1-6)Glc(a1-6)Glc(a1-6)Glc(a1-6)Glc
Outline: as §1

[36] = target: Glc(a1-6)Glc(a1-6)Glc(a1-6)Glc(a1-6)Glc(a1-6)Glc(a1-6)Glc(a1-6)Glc(a1-6)Glc(a1-6)Glc(a1-6)Glc
Outline: as §1

[37] = target: Glc(a1-6)Glc(a1-6)Glc(a1-6)Glc(a1-6)Glc(a1-6)Glc(a1-6)Glc(a1-6)Glc(a1-6)Glc(a1-6)Glc(a1-6)Glc(a1-6)Glc
Outline: as §1

[38] = target: Glc(a1-6)Glc(a1-6)Glc(a1-6)Glc(a1-6)Glc(a1-6)Glc(a1-6)Glc(a1-6)Glc(a1-6)Glc(a1-6)Glc(a1-6)Glc(a1-6)Glc(a1-6)Glc
Outline: as §1

Glc(b1-2)Glc = target: Glc(b1-2)Glc
Outline: as §1

Glc(b1-2)Glc(b1-2)Glc = target: Glc(b1-2)Glc(b1-2)Glc
Outline: as §1

[39] = target: Glc(b1-2)Glc(b1-2)Glc(b1-2)Glc
Outline: as §1

[40] = target: Glc(b1-2)Glc(b1-2)Glc(b1-2)Glc(b1-2)Glc
Outline: as §1

[41] = target: Glc(b1-2)Glc(b1-2)Glc(b1-2)Glc(b1-2)Glc(b1-2)Glc
Outline: as §1

[42] = target: Glc(b1-2)Glc(b1-2)Glc(b1-2)Glc(b1-2)Glc(b1-2)Glc(b1-2)Glc
Outline: as §1

[43] = target: Glc(b1-2)Glc(b1-2)Glc(b1-2)Glc(b1-2)Glc(b1-2)Glc(b1-2)Glc(b1-2)Glc
Outline: as §1

[44] = target: Glc(b1-2)Glc(b1-2)Glc(b1-2)Glc(b1-2)Glc(b1-2)Glc(b1-2)Glc(b1-2)Glc(b1-2)Glc
Outline: as §1

[45] = target: Glc(b1-2)Glc(b1-2)Glc(b1-2)Glc(b1-2)Glc(b1-2)Glc(b1-2)Glc(b1-2)Glc(b1-2)Glc(b1-2)Glc
Outline: as §1

Measured: glycan array binding signal (z-score)

B1: Unk16A (Cellvibrio mixtus), Q336L6 (protein)
chain: VAYNTTGASSSAASSSAPSSASSSSSSAAPVLLSQGRPVTASSNFQPAANAVDGNGGTRWESTHGVSPSWIMVDLGSSKNLSQVIIDWEAANAANYLVQASNNGMSWTTLKIITTGAFGDRTDTHSVAGNYRYVRIYATARSAGNQWGYSIWELKITGN
-0.346: Glc(b1-2)Glc
-0.661: [24]
-0.659: [26]
-0.664: [25] | [33]
2.23: [40]
-0.667: [20] | [21]
2.22: [42]
2.74: [41]
1.69: [43]
0.509: [39]
-0.666: [37]
0.364: Glc(b1-2)Glc(b1-2)Glc
-0.662: [23]
3.49: [44]
2.11: [45]
-0.668: all other assays above

— the supplement of paper PMC8728848
